From the supplement of paper PMC4967469
By IC50 is meant the dose at which the fit gives 50% viability; a limit (>, <) means that the fit lies beyond the doses tested. AUC sums up the same curve from the lowest dose to the 256-fold higher top dose; the more sensitive the line, the further below 1. For part of these data: Where the top dose is marked as inferred, it was derived from the fitted curves, not read from the paper.

Experiments:
Test in all cases: Viability of human cancer cell lines after 72 h of drug (GDSC screen)
[1] = compound: CN1CCc2c(c3ccccc3n2Cc2ccc(C(=O)NO)cc2)C1 [Tubastatin A]; conditions: top dose 20 µM
Description: (§1)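 Human cancer cell lines in 384-well plates, medium with 10% serum, drug for 72 h over a 256-fold dose range (nine 2-fold or five 4-fold steps up to the top dose). Adherent lines were fixed and stained with the nucleic acid dye Syto60, suspension lines read with resazurin; signal relative to control wells, capped at 0 and 100%. One two-parameter sigmoid per drug and line, fitted in a mixed model over all curves with the slope shared within a line.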

[2] = compound: COc1cc2c(Oc3ccc(NC(=O)C4(C(=O)Nc5ccc(F)cc5)CC4)cc3F)ccnc2cc1OCCCN1CCOCC1 [XL-880]; conditions: top dose 5.12 µM; top dose inferred
Description: as §1

[3] = compound: Cn1nnc2c(C(N)=O)ncn2c1=O [Temozolomide]; conditions: top dose 30 µM
Description: as §1

[4] = compound: O=C(NOCC1CC1)c1ccc(F)c(F)c1Nc1ccc(I)cc1Cl [CI-1040]; conditions: top dose 10 µM; top dose inferred
Description: as §1

[5] = compound: Oc1ccc2ccccc2c1SSc1c(O)ccc2ccccc12 [IPA-3]; conditions: top dose 32 µM; top dose inferred
Description: as §1

Cell Line	AUC [1]	IC50 [1] [µM]	AUC [2]	IC50 [2] [µM]	AUC [3]	IC50 [3] [µM]	AUC [4]	IC50 [4] [µM]	AUC [5]	IC50 [5] [µM]
OAW-42 (ovary, adherent)	0.962	> 20	0.683	1.09	0.955	> 30	0.844	8.09	0.951	> 32
CFPAC-1 (pancreas, adherent)	0.984	> 20	0.814	3.32	0.977	> 30	0.859	> 10	0.979	> 32
Caov-4 (ovary, adherent)	–	–	0.678	1.27	0.978	> 30	0.829	> 10	0.974	> 32
NB12 (neuroblastoma, adherent)	0.786	12	0.791	3.22	0.944	> 30	0.961	> 10	0.974	> 32
PA-TU-8988T (pancreas, adherent)	0.986	> 20	0.731	1.46	0.984	> 30	0.839	6.87	0.771	12.3
BICR78 (head and neck, adherent)	0.983	> 20	0.758	2.04	0.981	> 30	0.578	1.05	0.939	> 32
NCI-H146 (small cell lung carcinoma, suspension)	–	–	–	–	0.992	> 30	0.982	> 10	–	–
RH-41 (rhabdomyosarcoma, adherent)	0.963	> 20	0.701	1.05	0.992	> 30	0.965	> 10	0.745	8.69
H4 (glioma, adherent)	0.974	> 20	0.498	0.316	0.981	> 30	0.801	4.83	0.987	> 32
COR-L321 (lung, suspension)	0.831	12.6	0.717	1.32	0.964	> 30	0.959	> 10	–	–
IGROV-1 (ovary, adherent)	–	–	–	–	0.973	> 30	0.901	> 10	–	–
MG-63 (osteosarcoma, adherent)	0.983	> 20	0.984	> 5.12	–	–	0.927	> 10	0.67	6.48
NCI-H1105 (small cell lung carcinoma, suspension)	–	–	–	–	0.977	> 30	0.966	> 10	–	–
201T (lung adenocarcinoma, adherent)	0.977	> 20	0.713	1.52	–	–	0.944	> 10	0.922	> 32
SK-MEL-31 (melanoma, adherent)	–	–	–	–	0.981	> 30	0.915	> 10	–	–
MCF7 (breast, adherent)	0.986	> 20	–	–	0.971	> 30	0.945	> 10	0.579	3.33
JHU-011 (head and neck, adherent)	0.971	> 20	0.562	0.471	–	–	0.555	0.879	0.824	18.7

Cell Line	AUC [1]	IC50 [1] [µM]	AUC [2]	IC50 [2] [µM]	AUC [3]	IC50 [3] [µM]	AUC [4]	IC50 [4] [µM]	AUC [5]	IC50 [5] [µM]
NCI-H835 (lung carcinoid, suspension)	–	–	–	–	0.981	> 30	0.991	> 10	–	–
MHH-CALL-2 (B-cell leukaemia, suspension)	–	–	–	–	0.997	> 30	0.961	> 10	–	–
SNU-61 (large intestine, adherent)	0.868	> 20	0.684	1.25	0.977	> 30	0.9	> 10	–	–
BT-549 (breast, adherent)	–	–	–	–	0.934	> 30	0.968	> 10	–	–
PANC-04-03 (pancreas, adherent)	0.977	> 20	0.763	3.06	–	–	0.674	2.58	0.96	> 32
LN-229 (glioma, adherent)	0.984	> 20	0.812	2.74	–	–	0.809	5.18	0.884	> 32
NCI-H1734 (lung adenocarcinoma, adherent)	0.974	> 20	0.771	2.16	–	–	0.872	> 10	0.81	18.9
RCH-ACV (B-cell leukaemia, suspension)	–	–	–	–	0.976	> 30	0.93	> 10	–	–
KP-1N (pancreas, adherent)	–	–	–	–	0.977	> 30	0.892	> 10	0.753	11.2
MKN45 (stomach, adherent)	0.98	> 20	–	–	0.979	> 30	0.846	> 10	0.822	25.4
KNS-62 (lung squamous cell carcinoma, adherent)	–	–	–	–	0.91	> 30	0.678	2.47	–	–
MOLT-16 (T-cell lymphoblastic leukaemia, suspension)	–	–	–	–	0.979	> 30	0.837	4.86	–	–
MEL-HO (melanoma, adherent)	–	–	–	–	0.971	> 30	0.41	0.353	–	–
Hs746T (stomach, adherent)	0.83	19	0.605	0.688	0.978	> 30	0.862	> 10	–	–
CML-T1 (chronic myeloid leukaemia, suspension)	–	–	–	–	0.978	> 30	0.855	5.94	–	–
U251 (glioma, adherent)	0.874	17.9	0.564	0.475	–	–	0.873	8.86	0.987	> 32
